Experimental data from article PMC7819943, “Rice protein-binding microarrays: a tool to detect cis-acting elements near promoter regions in rice”.
Some of the results follow.

biological target: T1, OsWOX13 (Oryza sativa, UniProt Q5QMM3 1-267); experiment: protein-binding microarray (RPBM); PBS, 2% BSA, 51.3 ng/ul salmon testes DNA, 50 uM zinc acetate, 200 nM TF, 25 C, 1 h; high values mean tight binding; conditions: protein: recombinant; tags: N-terminal polyhistidine and DsRed monomer fusion (pET32a); label: CyDye5-dUTP incorporated in the synthesized complementary strand; 3' TTTTT single-stranded linker to array surface; dsDNA, one strand shown
T1 sequence: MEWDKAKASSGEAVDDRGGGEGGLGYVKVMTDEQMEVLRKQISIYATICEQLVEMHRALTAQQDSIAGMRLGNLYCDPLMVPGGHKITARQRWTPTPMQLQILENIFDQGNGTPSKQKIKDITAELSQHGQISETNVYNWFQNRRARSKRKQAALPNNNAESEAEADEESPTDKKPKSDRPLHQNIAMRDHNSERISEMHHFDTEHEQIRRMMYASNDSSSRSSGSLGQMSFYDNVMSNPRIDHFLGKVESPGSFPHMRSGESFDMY
Outline: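 Using Ni–NTA, transcription factors fused N-terminally to polyhistidine and DsRed were purified after expression in E. coli BL21-CodonPlus. These were incubated at 200 nM with a blocked, double-stranded custom Agilent array for 1 h at 25 °C in a buffer containing 50 µM zinc acetate, and the array was washed. The binding signal is per-feature fluorescence intensity (arbitrary units) on an Axon 4000B scanner.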

**Q.** “TAACTAATTACGCAGATTGCGACTAATTTGCGAGATGAATCGGAGTCACCTAGTGCAG” was tested. Which binding signal did it give?
**A.** Its binding signal is 33300 fluorescence intensity (a.u.).

**Q.** “GATTTGATTTGATTATACTGGATGGGAAATGGGAGGTGGACGGAGTCACCTAGTGCAG” was tested. Which binding signal did it give?
**A.** The binding signal was 37800 fluorescence intensity (a.u.).

**Q.** With “GCTGACGTGGCAATCTAATCACCATCTAAGTCAGCAAGATCGGAGTCACCTAGTGCAG” as the sequence, how does the binding signal read?
**A.** Its binding signal is 18900 fluorescence intensity (a.u.).

**Q.** “AATCAACCCGTACCAATTAATGATAGAGCTACCACTGAACCGGAGTCACCTAGTGCAG” was tested. Which binding signal did it give?
**A.** The binding signal was 3400 fluorescence intensity (a.u.).

**Q.** For “AACTCTAATTATAAATCAATAAATTCGTCAAAGAAAATCACGGAGTCACCTAGTGCAG”, which binding signal is on record?
**A.** The binding signal was 27700 fluorescence intensity (a.u.).

**Q.** With “TGATATTAATTAGAACTCATAAATCAACAATTAAGATAACCGGAGTCACCTAGTGCAG” as the sequence, how does the binding signal read?
**A.** Its binding signal is 4420 fluorescence intensity (a.u.).

**Q.** How did the binding signal turn out when “GTGATTGGCCACCTTCACCTCATTGGCTCCCTCCCGTATGCGGAGTCACCTAGTGCAG” was run?
**A.** Its binding signal is 37700 fluorescence intensity (a.u.).

**Q.** “GAGGAAATTAAAATTTCCTTTAAAATTCATTGGCCGAGAACGGAGTCACCTAGTGCAG” was tested. Which binding signal did it give?
**A.** The binding signal was 4540 fluorescence intensity (a.u.).

**Q.** Which binding signal does the source give for “AGCTAATTAAGCTATAGCTATATAGCTCGCAGTTGGTCGCCGGAGTCACCTAGTGCAG” here?
**A.** Its binding signal is 17600 fluorescence intensity (a.u.).

**Q.** How did the binding signal turn out when “TTATAATTATATTATAATTGTCTGCTCTAATTTCGTTACTCGGAGTCACCTAGTGCAG” was run?
**A.** Its binding signal is 44400 fluorescence intensity (a.u.).

**Q.** “AAAGTAATTAGTGTTTTCTTGATTAGTCTTTTCCTTGTATCGGAGTCACCTAGTGCAG” was tested. Which binding signal did it give?
**A.** Its binding signal is 42700 fluorescence intensity (a.u.).

**Q.** With “GATTGATGCAATTTAAATTATACTTAGTATTGGTGTATAACGGAGTCACCTAGTGCAG” as the sequence, how does the binding signal read?
**A.** Its binding signal is 11400 fluorescence intensity (a.u.).

**Q.** Which binding signal does the source give for “TGTGATAGAGAATCAAGTAGATATCGATCAGATAATATCTCGGAGTCACCTAGTGCAG” here?
**A.** The binding signal was 5210 fluorescence intensity (a.u.).

**Q.** For “ACTTGATTTGGTTTCTGACCAAATTAAGAGAATATCTGGACGGAGTCACCTAGTGCAG”, which binding signal is on record?
**A.** Its binding signal is 26300 fluorescence intensity (a.u.).

**Q.** “AATTAATCAAGTGCTAGTGGATGGGTTCCGACCTCCGAACCGGAGTCACCTAGTGCAG” was tested. Which binding signal did it give?
**A.** Its binding signal is 3550 fluorescence intensity (a.u.).

**Q.** “GTGTAGATTTATTAACATCTATATAAATGTGGGCAATGCTCGGAGTCACCTAGTGCAG” was tested. Which binding signal did it give?
**A.** Its binding signal is 8420 fluorescence intensity (a.u.).

**Q.** With “AATAATTGCTATATTTTGGGGCGTAGGTAGTAGTAGATAACGGAGTCACCTAGTGCAG” as the sequence, how does the binding signal read?
**A.** The binding signal was 12900 fluorescence intensity (a.u.).

**Q.** Which binding signal does the source give for “GGGAATAAAATTAATTAAACAATGTAGATACTCGCCCTACCGGAGTCACCTAGTGCAG” here?
**A.** Its binding signal is 20600 fluorescence intensity (a.u.).

**Q.** With “CCGTGCTTGATTGGCAAATGGATTAAAGAACCGCTTTTCTCGGAGTCACCTAGTGCAG” as the sequence, how does the binding signal read?
**A.** The binding signal was 42700 fluorescence intensity (a.u.).

**Q.** “CCGAACGATAATTATGTTCGATTTGTAAAATCCCAATGACCGGAGTCACCTAGTGCAG” was tested. Which binding signal did it give?
**A.** The binding signal was 16500 fluorescence intensity (a.u.).

**Q.** For “TTTGCAAATCATCACTTTTCATGCTACGGGCATGCAAATCCGGAGTCACCTAGTGCAG”, which binding signal is on record?
**A.** Its binding signal is 3290 fluorescence intensity (a.u.).

**Q.** For “GCAAGGGTAATTACAAATTAAATAATTAAGTCATAATAAGCGGAGTCACCTAGTGCAG”, which binding signal is on record?
**A.** Its binding signal is 31100 fluorescence intensity (a.u.).

**Q.** How did the binding signal turn out when “TGTAATTAGCCAGTGATTTGCTTAGAAAATCAACTCCATTCGGAGTCACCTAGTGCAG” was run?
**A.** Its binding signal is 34300 fluorescence intensity (a.u.).

**Q.** For “TATATATATATATATATACTGAAAACCTGATAATTATTGTCGGAGTCACCTAGTGCAG”, which binding signal is on record?
**A.** Its binding signal is 6890 fluorescence intensity (a.u.).

**Q.** With “CGACTTTAACTGATTAATCGGTGAAAACCGACTAATCCACCGGAGTCACCTAGTGCAG” as the sequence, how does the binding signal read?
**A.** The binding signal was 15600 fluorescence intensity (a.u.).

**Q.** With “ATAAATTTTGGGCCGTAATTGTGTTACGGTGGATGAGAGGCGGAGTCACCTAGTGCAG” as the sequence, how does the binding signal read?
**A.** The binding signal was 14300 fluorescence intensity (a.u.).

**Q.** Which binding signal does the source give for “TTGTTTAACTGACATTTGGGTCCCGCATATTTGTTTAATCCGGAGTCACCTAGTGCAG” here?
**A.** Its binding signal is 6740 fluorescence intensity (a.u.).

**Q.** How did the binding signal turn out when “TCTAATTTCATAACATACAAACTCAAAACTGCTACTCCCTCGGAGTCACCTAGTGCAG” was run?
**A.** Its binding signal is 11500 fluorescence intensity (a.u.).

**Q.** With “AGTGATGTAAAATCTTTAGTTCTGTATGATTTTGTATCGTCGGAGTCACCTAGTGCAG” as the sequence, how does the binding signal read?
**A.** The binding signal was 3320 fluorescence intensity (a.u.).

**Q.** For “TTTATAATTAGTATTCAAACATCCGATGTGGTAGGGACTTCGGAGTCACCTAGTGCAG”, which binding signal is on record?
**A.** The binding signal was 16900 fluorescence intensity (a.u.).

**Q.** “CTTGATTGTTCTTTCTTGCTCAAATGCCGGCCTGTGTTGGCGGAGTCACCTAGTGCAG” was tested. Which binding signal did it give?
**A.** Its binding signal is 53200 fluorescence intensity (a.u.).

**Q.** How did the binding signal turn out when “GTGCTCTTTAATTATCACTTTGTGCGCACTTTTCTTTGATCGGAGTCACCTAGTGCAG” was run?
**A.** Its binding signal is 6410 fluorescence intensity (a.u.).

**Q.** With “AATTCAATTATTTACTCCAAAATTTATACTACTAGAACCACGGAGTCACCTAGTGCAG” as the sequence, how does the binding signal read?
**A.** The binding signal was 11500 fluorescence intensity (a.u.).

**Q.** For “CTTAACCAAAATCAGCATCCCAATTCCCAAACCTCTCAAGCGGAGTCACCTAGTGCAG”, which binding signal is on record?
**A.** Its binding signal is 3720 fluorescence intensity (a.u.).

**Q.** Which binding signal does the source give for “TCAGCTTATTGACTTATATGATTTATAAGCCAATGGATTTCGGAGTCACCTAGTGCAG” here?
**A.** The binding signal was 11100 fluorescence intensity (a.u.).

**Q.** “ATACGGTGAATAAATTTATACAAACTGCAACTCCAATATCCGGAGTCACCTAGTGCAG” was tested. Which binding signal did it give?
**A.** Its binding signal is 10200 fluorescence intensity (a.u.).

**Q.** How did the binding signal turn out when “TTGGCCTAATTGCTAACTGCAATTTATCTGAAAATTGTTTCGGAGTCACCTAGTGCAG” was run?
**A.** The binding signal was 26200 fluorescence intensity (a.u.).

**Q.** For “CAATAATAGGATTAGAATGAAGAAAGCACCCCTGAGCTTGCGGAGTCACCTAGTGCAG”, which binding signal is on record?
**A.** Its binding signal is 7340 fluorescence intensity (a.u.).

**Q.** How did the binding signal turn out when “ATAATTATTTGTTTTCAGTCATGTATCTTCATCTTATACACGGAGTCACCTAGTGCAG” was run?
**A.** The binding signal was 6340 fluorescence intensity (a.u.).

**Q.** Which binding signal does the source give for “GCTAATGACATAACAACATACTAATAGGCCATGTCTGGATCGGAGTCACCTAGTGCAG” here?
**A.** Its binding signal is 20900 fluorescence intensity (a.u.).

**Q.** How did the binding signal turn out when “TTGTCGTACAATAATTGAAGTTCAAATTCAACGTCAACTTCGGAGTCACCTAGTGCAG” was run?
**A.** The binding signal was 5890 fluorescence intensity (a.u.).

**Q.** With “TGGTGCCAATTAGTTTTCTTGTGTAAATCTGAAGTTCTGACGGAGTCACCTAGTGCAG” as the sequence, how does the binding signal read?
**A.** The binding signal was 5750 fluorescence intensity (a.u.).
